# The other results are listed elsewhere or left out.
# Tests used:
# Experiment in all cases: glycan array binding signal (z-score within array); higher = stronger binding
# Conditions in all cases: glycan notation: IUPAC condensed, linker removed
# [1] = molecular target: Neu5Ac(a2-3)[GalNAc(b1-4)]Gal(b1-4)Glc
# In short: (§1)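 Glycan array data came from 3228 arrays in the Consortium for Functional Glycomics database, and only arrays with an available protein sequence were kept. Glycan names were put into IUPAC-condensed notation, and columns mapping to the same glycan were averaged. The binding signal is a within-array Z-score, averaged across arrays of one protein sequence run at different concentrations or buffers and across linkers. A negative Z-score can be read as non-binding.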
# [2] = molecular target: Neu5Ac(a2-3)[GalNAc(b1-4)]Gal(b1-4)GlcNAc
# In short: as §1
# [3] = molecular target: Neu5Ac(a2-3)[GalNAc(b1-4)]Gal(b1-4)GlcNAc(b1-3)GalNAc
# In short: as §1
# [4] = molecular target: Neu5Ac(a2-3)[Neu5Ac(a2-6)]GalNAc
# In short: as §1
# [5] = molecular target: Neu5Ac(a2-6)Gal
# In short: as §1
# [6] = molecular target: Neu5Ac(a2-6)Gal(b1-3)GlcNAc(b1-3)[Gal(b1-4)GlcNAc(b1-6)]Gal(b1-4)Glc
# In short: as §1
# [7] = molecular target: Neu5Ac(a2-6)Gal(b1-4)Glc
# In short: as §1
# [8] = molecular target: Neu5Ac(a2-6)Gal(b1-4)GlcNAc
# In short: as §1
# [9] = molecular target: Neu5Ac(a2-6)Gal(b1-4)GlcNAc(b1-2)Man(a1-3)Man(b1-4)GlcNAc(b1-4)GlcNAc
# In short: as §1
# [10] = molecular target: Neu5Ac(a2-6)Gal(b1-4)GlcNAc(b1-2)Man(a1-3)[Gal(b1-4)GlcNAc(b1-2)Man(a1-6)]Man(b1-4)GlcNAc(b1-4)GlcNAc
# In short: as §1
# [11] = molecular target: Neu5Ac(a2-6)Gal(b1-4)GlcNAc(b1-2)Man(a1-3)[GlcNAc(b1-2)Man(a1-6)]Man(b1-4)GlcNAc(b1-4)GlcNAc
# In short: as §1
# [12] = molecular target: Neu5Ac(a2-6)Gal(b1-4)GlcNAc(b1-2)Man(a1-3)[GlcNAc(b1-2)Man(b1-4)GlcNAc(b1-2)Man(a1-6)]Man(b1-4)GlcNAc(b1-4)GlcNAc
# In short: as §1
# [13] = molecular target: Neu5Ac(a2-6)Gal(b1-4)GlcNAc(b1-2)Man(a1-3)[Man(a1-6)]Man(b1-4)GlcNAc(b1-4)GlcNAc
# In short: as §1
# [14] = molecular target: Neu5Ac(a2-6)Gal(b1-4)GlcNAc(b1-2)Man(a1-3)[Neu5Ac(a2-6)Gal(b1-4)GlcNAc(b1-2)Man(a1-6)]Man(b1-4)GlcNAc(b1-4)GlcNAc
# In short: as §1
# [15] = molecular target: Neu5Ac(a2-6)Gal(b1-4)GlcNAc(b1-2)Man(a1-3)[Neu5Ac(a2-6)Gal(b1-4)GlcNAc(b1-2)Man(a1-6)]Man(b1-4)GlcNAc(b1-4)[Fuc(a1-6)]GlcNAc
# In short: as §1
# [16] = molecular target: Neu5Ac(a2-6)Gal(b1-4)GlcNAc(b1-2)Man(a1-6)Man(b1-4)GlcNAc(b1-4)GlcNAc
# In short: as §1
# [17] = molecular target: Neu5Ac(a2-6)Gal(b1-4)GlcNAc(b1-2)Man(a1-6)[Gal(b1-4)GlcNAc(b1-2)Man(a1-3)]Man(b1-4)GlcNAc(b1-4)GlcNAc
# In short: as §1
# [18] = molecular target: Neu5Ac(a2-6)Gal(b1-4)GlcNAc(b1-2)Man(a1-6)[GlcNAc(b1-2)Man(a1-3)]Man(b1-4)GlcNAc(b1-4)GlcNAc
# In short: as §1
# [19] = molecular target: Neu5Ac(a2-6)Gal(b1-4)GlcNAc(b1-2)Man(a1-6)[Man(a1-3)]Man(b1-4)GlcNAc(b1-4)GlcNAc
# In short: as §1
# [20] = molecular target: Neu5Ac(a2-6)Gal(b1-4)GlcNAc(b1-3)Gal(b1-3)GlcNAc
# In short: as §1
# [21] = molecular target: Neu5Ac(a2-6)Gal(b1-4)GlcNAc(b1-3)Gal(b1-4)GlcNAc
# In short: as §1
# [22] = molecular target: Neu5Ac(a2-6)Gal(b1-4)GlcNAc(b1-3)Gal(b1-4)GlcNAc(b1-3)Gal(b1-4)GlcNAc
# In short: as §1
# [23] = molecular target: Neu5Ac(a2-6)Gal(b1-4)GlcNAc(b1-3)Gal(b1-4)[Fuc(a1-3)]GlcNAc(b1-3)Gal(b1-4)[Fuc(a1-3)]GlcNAc
# In short: as §1
# [24] = molecular target: Neu5Ac(a2-6)Gal(b1-4)GlcNAc(b1-3)GalNAc
# In short: as §1
# [25] = molecular target: Neu5Ac(a2-6)Gal(b1-4)GlcNAc(b1-3)[Neu5Ac(a2-6)Gal(b1-4)GlcNAc(b1-6)]GalNAc
# In short: as §1
# [26] = molecular target: Neu5Ac(a2-6)Gal(b1-4)GlcNAc(b1-6)GalNAc
# In short: as §1
# [27] = molecular target: Neu5Ac(a2-6)Gal(b1-4)GlcNAc(b1-6)[Gal(b1-3)GlcNAc(b1-3)]Gal(b1-4)Glc
# In short: as §1
# [28] = molecular target: Neu5Ac(a2-6)Gal(b1-4)GlcNAc6S
# In short: as §1
# [29] = molecular target: Neu5Ac(a2-6)GalNAc
# In short: as §1
# [30] = molecular target: Neu5Ac(a2-6)GalNAc(b1-4)GlcNAc
# In short: as §1
# [31] = molecular target: Neu5Ac(a2-6)GalNAc(b1-4)GlcNAc6S
# In short: as §1
# [32] = molecular target: Neu5Ac(a2-6)GlcNAc(b1-4)GlcNAc
# In short: as §1
# [33] = molecular target: Neu5Ac(a2-6)GlcNAc(b1-4)GlcNAc(b1-4)GlcNAc
# In short: as §1
# [34] = molecular target: Neu5Ac(a2-8)Neu5Ac
# In short: as §1
# [35] = molecular target: Neu5Ac(a2-8)Neu5Ac(a2-3)Gal(b1-3)GalNAc(b1-4)[Neu5Ac(a2-8)Neu5Ac(a2-3)]Gal(b1-4)Glc
# In short: as §1
# [36] = molecular target: Neu5Ac(a2-8)Neu5Ac(a2-3)Gal(b1-4)Glc
# In short: as §1
# [37] = molecular target: Neu5Ac(a2-8)Neu5Ac(a2-3)[Gal(b1-3)GalNAc(b1-4)]Gal(b1-4)Glc
# In short: as §1
# [38] = molecular target: Neu5Ac(a2-8)Neu5Ac(a2-3)[GalNAc(b1-4)]Gal(b1-4)Glc
# In short: as §1
# [39] = molecular target: Neu5Ac(a2-8)Neu5Ac(a2-8)Neu5Ac
# In short: as §1
# [40] = molecular target: Neu5Ac(a2-8)Neu5Ac(a2-8)Neu5Ac(a2-3)Gal(b1-4)Glc
# In short: as §1
# [41] = molecular target: Neu5Ac(a2-8)Neu5Ac(a2-8)Neu5Ac(a2-3)[GalNAc(b1-4)]Gal(b1-4)Glc
# In short: as §1
# [42] = molecular target: Neu5Ac(a2-8)Neu5Ac(a2-8)Neu5Ac(a2-8)Neu5Ac(a2-3)[GalNAc(b1-4)]Gal(b1-4)Glc
# In short: as §1
# [43] = molecular target: Neu5Ac(b2-6)Gal(b1-4)GlcNAc
# In short: as §1
# [44] = molecular target: Neu5Ac(b2-6)GalNAc
# In short: as §1
# [45] = molecular target: Neu5Ac9Ac(a2-3)Gal(b1-3)GlcNAc
# In short: as §1
# [46] = molecular target: Neu5Ac9Ac(a2-3)Gal(b1-4)GlcNAc
# In short: as §1
# [47] = molecular target: Neu5Ac9Ac(a2-6)Gal(b1-4)GlcNAc
# In short: as §1
# [48] = molecular target: Neu5Gc(a2-3)Gal(b1-3)GlcNAc
# In short: as §1
# [49] = molecular target: Neu5Gc(a2-3)Gal(b1-3)[Fuc(a1-4)]GlcNAc
# In short: as §1
# [50] = molecular target: Neu5Gc(a2-3)Gal(b1-4)Glc
# In short: as §1
# [51] = molecular target: Neu5Gc(a2-3)Gal(b1-4)GlcNAc
# In short: as §1
# [52] = molecular target: Neu5Gc(a2-3)Gal(b1-4)[Fuc(a1-3)]GlcNAc
# In short: as §1
# [53] = molecular target: Neu5Gc(a2-6)Gal(b1-4)GlcNAc
# In short: as §1
# [54] = molecular target: Neu5Gc(a2-6)GalNAc
# In short: as §1
# [55] = molecular target: Neu5Gc(b2-6)Gal(b1-4)GlcNAc
# In short: as §1
binder,measurement,setting,value
"OrfX (Escherichia coli), Q9X4B6_ECOLX (protein) MIKIARIAVTLGLLSSLGAQAYAAGLVVNDNDLRNDLAWLSDRGVIHLSLSTWPLSQEEIARALKKAKPSYSSEQVVLARINQRLSALKADFRVTGYTSTDQPGTPQGFGQTQPADNSLGLAFNNSGEWWDVHLQGNVEGGERISNGSRFNANGAYGAVKFWNQWLSFGQVPQWWGPGYEGSLIRGDAMRPMTGFLMQRAEQAAPETWWLRWVGPWQYQISASQMNQYTAVPHAKIIGGRFTFTPFQSLELGASRIMQWGGEGRPQSFSSFWDGFTGHDNTGTDNEPGNQLAGFDFKFKLEPTLGWPVSFYGQMVGEDESGYLPSANMFLGGVEGHHGWGKDTVNWYVEAHDTRTNMSRTNYSYTHHIYKDGYYQQGYPLGDAMGGDGQLIAGKVELITEDNQRWSTRLVYAKVNPENQSINKAFPHADTLKGLQLGWSGDVYQSVRLNTSLWYTNANNSDSDDVGASAGIEIPFSL",glycan array binding signal (z-score),[1],-0.287
same,glycan array binding signal (z-score),[2],0.199
same,glycan array binding signal (z-score),[3],-0.205
same,glycan array binding signal (z-score),[4],-0.289
same,glycan array binding signal (z-score),[5],-0.031
same,glycan array binding signal (z-score),[6],-0.156
same,glycan array binding signal (z-score),[7],-0.126
same,glycan array binding signal (z-score),[8],-0.318
same,glycan array binding signal (z-score),[9],-0.428
same,glycan array binding signal (z-score),[10],-0.395
same,glycan array binding signal (z-score),[11],-0.308
same,glycan array binding signal (z-score),[12],-0.54
same,glycan array binding signal (z-score),[13],-0.426
same,glycan array binding signal (z-score),[14],-0.228
same,glycan array binding signal (z-score),[15],-0.386
same,glycan array binding signal (z-score),[16],-0.314
same,glycan array binding signal (z-score),[17],-0.286
same,glycan array binding signal (z-score),[18],-0.293
same,glycan array binding signal (z-score),[19],-0.298
same,glycan array binding signal (z-score),[20],-0.328
same,glycan array binding signal (z-score),[21],-0.05
same,glycan array binding signal (z-score),[22],-0.288
same,glycan array binding signal (z-score),[23],-0.292
same,glycan array binding signal (z-score),[24],0.36
same,glycan array binding signal (z-score),[25],-0.196
same,glycan array binding signal (z-score),[26],3.4
same,glycan array binding signal (z-score),[27],-0.382
same,glycan array binding signal (z-score),[28],-0.224
same,glycan array binding signal (z-score),[29],-0.124
same,glycan array binding signal (z-score),[30],-0.2
same,glycan array binding signal (z-score),[31],-0.259
same,glycan array binding signal (z-score),[32],-0.189
same,glycan array binding signal (z-score),[33],-0.271
same,glycan array binding signal (z-score),[34],-0.167
same,glycan array binding signal (z-score),[35],-0.409
same,glycan array binding signal (z-score),[36],-0.319
same,glycan array binding signal (z-score),[37],-0.2
same,glycan array binding signal (z-score),[38],-0.358
same,glycan array binding signal (z-score),[39],-0.166
same,glycan array binding signal (z-score),[40],-0.305
same,glycan array binding signal (z-score),[41],-0.388
same,glycan array binding signal (z-score),[42],0.018
same,glycan array binding signal (z-score),[43],-0.213
same,glycan array binding signal (z-score),[44],-0.166
same,glycan array binding signal (z-score),[45],-0.162
same,glycan array binding signal (z-score),[46],-0.165
same,glycan array binding signal (z-score),[47],-0.223
same,glycan array binding signal (z-score),[48],-0.125
same,glycan array binding signal (z-score),[49],-0.152
same,glycan array binding signal (z-score),[50],-0.186
same,glycan array binding signal (z-score),[51],-0.386
same,glycan array binding signal (z-score),[52],-0.187
same,glycan array binding signal (z-score),[53],-0.233
same,glycan array binding signal (z-score),[54],-0.211
same,glycan array binding signal (z-score),[55],-0.101

# Reference: the supplement of paper PMC8728848
